Results on 56 variants are retold here after the RNAGym collection of RNA variant scans (doi:10.7554/elife.90254).

The source gives no read counts; variants with many changes may rest on few reads.

B1: LINE1-mini (parent)
chain: GGCAGAGCUCAACACAGCGUGGCAAAGUGGCUGUGGCUAGACUGCC

The series covers variants of B1. The series can be described thus: self-cleavage, relative activity (ratio to wild type); higher = more cleavage; in vitro, sequencing; the parent is a self-cleaving ribozyme.
Consider GCCAGAGCUCAACGCAGCCUGGCAAAGUGGCUGUGGCUAGACUUCC [G2C A14G G19C G44U], for which the self-cleavage is 0.03.
Then GCCAGAGCUCAACACAGCGUGGCACAGUGGGUGUGGCUAGACUGCU [G2C A25C C31G C46U], with 0.09; and GCCAGAGGUCAUCACAGCGUGGCAAAGUGUCUGUGUCUAGACUGCC [G2C C8G A12U G30U G36U], with 0.
The same measure for GCGAGAGCUCAACACAGCGUGGCAAAGUGGCUGUGGCUUGACUGCC [G2C C3G A39U]: 0.06; for GCGAAAGCUCAACACAGCGUGGCAAAGUGGCUGUGGCUAUACUGCC [G2C C3G G5A G40U]: 0.11; for GCCAGAGCUCAACCCAGCGUGGCAAAGUGGCUGUGGCUAGACUUCC [G2C A14C G44U]: 0.01.
GCUAGUGCUUUACACAGCCUGGAAAAAUGGCUGUGGCUAGACUGCC [G2C C3U A6U C10U A11U G19C C23A G27A]: the self-cleavage was 0.01.
The same measure for GCCAGAGAUCAACAUAGCGUGGCAAAGUGGCUGUGGCUACACUGCC [G2C C8A C15U G40C]: 0.
Then GCCAGAGCUCAACACAGCGUGGCUGAGUGGCUGUGGCUAGACUGCC [G2C A24U A25G], with 0.05.
The same measure for GCCAGAGAUCAACACAGCGUGGCAAAGUGGCUGCGGCUAGACUGCC [G2C C8A U34C]: 0.15; for GCCAGAGCUCAACACAGCGUGGCAUAGUGGCUGUCGCUAGACAGAU [G2C A25U G35C U43A C45A C46U]: 0.08; for GCCAGAGAUCUACACACCCUGGCAAAGUGGCUGUGGCUAGACUGCC [G2C C8A A11U G17C G19C]: 0.01.
With GCUAGAACUCAACACAGCCUUGCAAAGUGGCUGUGGCUAGACUGCC [G2C C3U G7A G19C G21U], the self-cleavage was 0.13.
Then GCGAAAGCUCCACACAGCGUGGCAAAGUGGCUGUGGCUAGACUGCC [G2C C3G G5A A11C], with 0.06.
The same measure for GCCAGAGCUCAACACAGCGUGGCAACAUGGCUGUGGCUAGACUGCC [G2C A26C G27A]: 0.08; for GCCAGAGCUCAACUCAUCGUGGCAAAGUGGCUGUGGCUAGACUGCC [G2C A14U G17U]: 0.09.
The same measure for GCGAGAGCUCAACACAGCCUGGCAAAGAGGCUGUGGCUAGACUGCU [G2C C3G G19C U28A C46U]: 0.06.
In the case of GCCAGAGAUUAACACAGCGUGGAAAAGUGGCUGUGGCUAGACUGCC [G2C C8A C10U C23A], the self-cleavage is 0.06.
Then GCGAGAGCUCAACACAGCGUGGUAAAGUGGCUGUGGCUAGUCUGCA [G2C C3G C23U A41U C46A], with 0.02; and GCCAGAGCUCAACGCAGCGCGGGAAAGUGGCAGUGGCUAGACUGAC [G2C A14G U20C C23G U32A C45A], with 0.02; and GCCAGAGCUCAACACAGCGUGGCAAAGUGGCUGUGGCUCGACUGCA [G2C A39C C46A], with 0.
Then GCCAGAGCUCAACACAGCGUGGCAACGUGGAUGUCGCUAGACUGCG [G2C A26C C31A G35C C46G], with 0.02.
Turning to GCGAGAGCUCAACACAGCUUCGCAAAGUGUCAGUGGCUAGACUGCC [G2C C3G G19U G21C G30U U32A], the self-cleavage was 0.04.
Then GCCAGAGGUAAACACAGCGUGGCAAAGAGGCUGUGGCUAGACUGCC [G2C C8G C10A U28A], with 0.01; and GCCAGAGGUCAACACAAAGUGGCAAAGUGGCUGUGGCUAGAGUGCC [G2C C8G G17A C18A C42G], with 0.03; and GCCAGAGCUCAACACAGCGUGGCCAAGUGUCUGUAGCUAGACUUCC [G2C A24C G30U G35A G44U], with 0.
GCAAGAGGUCAACACAGCGUGGCAAAGUGGCUGUGGCUAGACUGCC [G2C C3A C8G]: the self-cleavage was found to be 0.02.
The same measure for GCGAAAGUUCGACACAGCGUGGCAAAUUGACUGUGGCUAGACUGCC [G2C C3G G5A C8U A11G G27U G30A]: 0.03; for GCAAGAGCUCAACACAGCGUGGCAAAGUGGCUGUGGUUAGACUGCC [G2C C3A C37U]: 0.02.
Then GCCAGAGUUCAACGCAGCGUUGCAAAGCGGCUGUGGCAAGUCUGCG [G2C C8U A14G G21U U28C U38A A41U C46G], with 0.08.
With GCUAGAGCUCAACACAACGUGGCAAAGUGGAUGUGGCUAGACGGCG [G2C C3U G17A C31A U43G C46G], the self-cleavage came to 0.01.
The same measure for GCCAGAGCUCAACACAGCGUGGCAAUGUGGCUGUGGCUAAACUGUC [G2C A26U G40A C45U]: 0.36; for GCCAGAGCUCAACACUGCGUGGCAAAGUGGCUGUGGCUUGACUGCC [G2C A16U A39U]: 0.02; for GCCAGAGCUCAACACUGCGUGGCAAAGUGGCUGUGGCUAGAAUGCC [G2C A16U C42A]: 0.02.
Then GCCAGAGAUCAACAUAGCCGGGCAAAGUGGCUGUGGCUAGACUGCG [G2C C8A C15U G19C U20G C46G], with 0.22.
The same measure for GCCAGAGCUCAACGCAGCGUGGACAACUGGCUGUGGAUAAACUGCC [G2C A14G C23A A24C G27C C37A G40A]: 0; for GCCAGAGAUCAGCACAGCGUGGCAAAGUGGCUGUGGCUAGAAUGCC [G2C C8A A12G C42A]: 0.02.
GCAAGAGCUCAACGCAUCGUAGAAAAGUGGCUGUGGCUAGACUGCC [G2C C3A A14G G17U G21A C23A]: the self-cleavage is 0.1.
Then GCCAGAGGUCAACACAGAGUGGCAAAGUGGCUGUGCCUAGACUGCC [G2C C8G C18A G36C], with 0.01; and GCUAGAGCUCAACAUAGCGUGGCAUAGUGGCUGUGGCCAGACUGCC [G2C C3U C15U A25U U38C], with 0.07.
Regarding GCCAGAGCUCAACGCAACGUGGCAAAGUGGCUGUGGCUAGACUGCC [G2C A14G G17A], the self-cleavage came out at 0.09.
The same measure for GCCAGAGCUCAACACAGCGUGGCAAGGUGGCUGUGGCUUACCUGCC [G2C A26G A39U G40A A41C]: 0.03.
As for GCCAGAGCUCAACACGGCGUCGCAGAGUGGCUGUGGCUAGACUGCC [G2C A16G G21C A25G], the self-cleavage stood at 0.09.
Then GCCAGAGCUCAACACUGCGUCGCGAAGUGGCUGUGACUAGACUGCC [G2C A16U G21C A24G G36A], with 0.04; and GCCAGAGCUCAACGCAGCGUGGCAAAGUGGCUGCGGCUAGACUGCC [G2C A14G U34C], with 0.02.
Then GCAAGAGCUCAACACAGCGGGGCAAAGUGGCUGUGGCUAGACUGCC [G2C C3A U20G], with 0.05; and GCCAGAGCUCAACUCAGCGUGGCAAAGUGGCUGUGGUUAGACUGCC [G2C A14U C37U], with 0.03; and GCGAGAGCUCAACACAGAGUGGCAAAGUGGCUGUGGCUACACUGCC [G2C C3G C18A G40C], with 0.07.
For the variant GCCAGAGGUCAACACAGCGAGGCAAAGUGGCAGUGGCUAGACUGCC [G2C C8G U20A U32A], the self-cleavage amounted to 0.01.
The same measure for GCCAGAGAUCAACACAGCCUGGCAAAGUGGCUAUGGCUUAACUGCC [G2C C8A G19C G33A A39U G40A]: 0.02; for GCCAGAGCUCAACGCAGGGUAGGAAAGUGGCUGUGGCUAGACUGCC [G2C A14G C18G G21A C23G]: 0.02.
With GCAAGAGCUCAACAGUGCGUGGCAAAGUGGCUGUGGCUAGACUGCC [G2C C3A C15G A16U], the self-cleavage turned out to be 0.03.
Regarding GCAAGAGCUCAACACAGCGUGGCAAGGUGGCGGUGGCUAGACUGCC [G2C C3A A26G U32G], the self-cleavage is 0.03.
The same measure for GCCAGAGCUCAACACGGCGUGGCAAAGUGGCUGUGGCUUGACUGCC [G2C A16G A39U]: 0.08; for GCCAGAGAUCAACACAGCGUGGCAAAGUGGCUGUGGCUAGAAGGCC [G2C C8A C42A U43G]: 0.15; for GCUAGAGCUCCACACAGCGUGGCAAAGUGGCUGUUGCUAGAGUGCC [G2C C3U A11C G35U C42G]: 0.02.
